From publication PMC6999911, “New 2-Ethylthio-4-methylaminoquinazoline derivatives inhibiting two subunits of cytochrome bc1 in Mycobacterium tuberculosis” (PLoS Pathogens, 2020) come the findings set out here.

Structures are written as SMILES. Converted amounts (≈) assume the structure as drawn.

The assay relates to M. tb strain H37Rv. In words: Resazurin microtiter assay (REMA), MIC. The conditions noted are these: for Change in the MIC with acetate as the sole carbon source: H37Rv grown in 7H9-based media containing acetate; for MIC: Mycobacterium tuberculosis, H37RV, Mycobacterium tuberculosis H37Rv (Table 1). For orientation: Resazurin is reduced to fluorescent resorufin, in cell work by metabolically active cells.

Consider `CCSc1nc(NC)c2ccccc2n1` [Compound 11626141], for which the “Change in the MIC with acetate as the sole carbon source” value (“Change in the MIC with acetate” below) is listed as “no significant change” and the MIC stood at 0.04 µg/mL (≈ 0.182 µM).

Regarding `CCNc1nc(SCC)nc2ccccc12` [Compound 11626142], the “Change in the MIC with acetate” value is “no significant change” and it took 0.09 µg/mL (≈ 0.386 µM) to inhibit growth (MIC).

For `CCSc1nc(NC)c2cccc(F)c2n1` [Compound 11626252], the “Change in the MIC with acetate” value was “no significant change” and the MIC is 0.02 µg/mL (≈ 0.0843 µM). With `CCSc1nc(NC)c2cc(F)ccc2n1` [Compound 11626256], the “H37Rv MIC” value (REMA, MIC99 referred to as MIC, in vitro) was 0.04 µg/mL. `CO[C@H]1/C=C/O[C@@]2(C)Oc3c(C)c(O)c4c(O)c(c(/C=N/N5CCN(C)CC5)c(O)c4c3C2=O)NC(=O)/C(C)=C\C=C\[C@H](C)[C@H](O)[C@@H](C)[C@@H](O)[C@@H](C)[C@H](OC(C)=O)[C@@H]1C` [RIF, rifampicin, reference compound] gave a minimum inhibitory concentration (MIC) of 0.0008 µg/mL (≈ 0.000972 µM).

By MIC is commonly meant the least concentration at which growth counts as inhibited. The low end stands for greater potency, the high end for weaker potency.
